# Test results from EP4660190A1, “PHARMACEUTICALLY ACCEPTABLE SALT OF COMPOUND AND PREPARATION METHOD THEREFOR” (Jiangsu Chia Tai Fenghai Pharmaceutical Co., Ltd., priority 2023, dated 2024).
# Assay: SOD1-G93A ALS mice, body weight
# Details: all doses, compared to the solvent group
substance,measurement,value
(Z)-3-(1-hydroxybutenyl)benzofuran-2-one tromethamine salt [Example 10],effect on the body weight of the mice,no significant effect
